# According to the supplement of paper PMC12632987:
# The full ranking holds about 1,800 sequences; the median of “median log2 fold change of GCK-ALFA target abundance (FLAG IP / Myc IP barcode read proportion)” is about 0.14, and the lowest 2% start at about -0.84. The list shows a part of the results.
# T1: TRAF2, Q12933
# T1 chain: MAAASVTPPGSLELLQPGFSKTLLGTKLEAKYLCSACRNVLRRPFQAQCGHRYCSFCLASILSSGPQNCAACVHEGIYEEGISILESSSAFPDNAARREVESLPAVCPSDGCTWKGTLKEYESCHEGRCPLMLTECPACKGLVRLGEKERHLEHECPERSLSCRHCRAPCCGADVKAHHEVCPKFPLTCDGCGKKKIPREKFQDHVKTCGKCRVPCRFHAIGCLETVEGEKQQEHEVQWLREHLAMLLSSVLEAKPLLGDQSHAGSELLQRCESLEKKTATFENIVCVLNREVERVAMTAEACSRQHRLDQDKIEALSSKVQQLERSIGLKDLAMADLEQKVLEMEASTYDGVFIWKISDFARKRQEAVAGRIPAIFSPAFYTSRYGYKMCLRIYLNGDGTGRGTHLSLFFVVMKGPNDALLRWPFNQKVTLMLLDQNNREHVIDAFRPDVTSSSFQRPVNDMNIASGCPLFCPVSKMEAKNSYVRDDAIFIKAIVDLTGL
# B1: traf2_out_20_3_2210 (protein)
# chain: KELEEKLKEELEKALKLLKEAKKLADPETAKKLDELIKRLKASEELSYEDRLVELSEIRREVLLLAQEAKAKGNEELAKVLEKAADAIQRAMNLVYKIIE
# B2: traf2_out_13_95_1165 (protein)
# chain: EEEKTKKEREIASEAYDEMEKVARDFAARVRALIDDPEADALMDEVVRNMNIYTLEAAAARLQAAHPEHAAEIAALAAEALAKMREIIKETTEKLNEIEE
# B3: traf2_out_18_147_1812 (protein)
# chain: SWKDAIDKIADLSEEIRELMREIAELTGEEEETKELEDILTSTSVSDEEKEKAVEEAIKKYKEKGKEEAVEKLKKALELSKKRKEAAKEANKLINEEEAK
# B4: traf2_out_12_187_967 (protein)
# chain: SVEEELIEAAKEALRQALKALEKAAPEHPRFQEMLKRLKEVEKLLEKHPEVAADVTVAASLILRAVRLLEAGLPQEEVDAALAAAEKELEEVLKKLKELE
# B5: traf2_out_20_3_2067 (protein)
# chain: SELEEELEKELEKALKLLKEAAKKADPATAKELEALIKRLKESRELSYSDRLVEVSEVRREVLALAEKAKAAGDAELAKLLDKAADALNRAAQLLYDILQ
# B6: traf2_out_1_27_1013 (protein)
# chain: SDEELTALIKKTDKEVASVNLEEAKEVVKKAIKEAYKLGKGDAVMLARTLVASELDKERAEAITEAALEAFKELGFPEEEIEELRKIFESIMERIEKVLA
# B7: traf2_out_17_162_1526 (protein)
# chain: SALEERLAELEAELERLEEELERLKERLERIDELSKEELTDLLVEASEARRRARELAEELRELRAEIGEERAEELIERAERIAEELQRIANELYKRLEEK
# B8: traf2_out_18_157_1819 (protein)
# chain: MTEEELLRLAKWAQEASDAFDDLAAEVADASLDEIIAAFKALAAKQVEAGKEFPKETVLDMLKRQARRAIERIGAARGLSPEEVQAMIDTVNAAIEEKVA
# B9: traf2_out_15_180_1322 (protein)
# chain: MTEEELKRRIELANEVADKADDRLAELLAANPGLSEAEKAALRALRRSVTTLLFNGEEAEAAAAVAAAKARLSPEAAAVADELYAFIRELVAAAKAELAA
# B10: traf2_out_3_77_2274 (protein)
# chain: SMKKEEIREKLDEATTLAIASLAVNAINNPEKAEEFREMARIVHRARAIAKEKGKEEELLPLIEEAKEAADKLNEGDESALEKLKEIVKKIGELAEKWEK
# B11: traf2_out_14_166_1279 (protein)
# chain: MTPEEIERIRKIVDELEPLTDAAVARARAILAANRGRLSPEDLARVEELLALAARNIGSSAINALREIAEIFRAAGLEAAAAEVQALADELEEKLKELNK
# B12: traf2_out_15_48_1357 (protein)
# chain: TTEELRKTAREINDLIDATLDEVAAELRALLPEAPEENKPLLEEAIDVASNHRSINDTIALLDEAIARSDPELKARLEALRDRLLATKKEASKLFNEALK
# B13: traf2_out_18_117_1797 (protein)
# chain: SELEEAKKEFEKTAEEFEKELEEAQRIATKLIEKYPKALPPEAMDAIVELGEVKRRFQQLKQEAEANPNNLEKQKEIVEELKKLTEKMKEIREKLEKILA
# B14: traf2_out_20_38_2044 (protein)
# chain: VTIEEAAANIEKLAPQFFAIADEVDELVARLRAEGLSDEEIADRLEEHAVARLKSLGDEEGAEELRETMAELRAAGASLRDVARAAVRAMSTALDKKANE
# B15: traf2_out_11_169_872 (protein)
# chain: KEAEKNRKLNDFALELNDEAKEKLKEFALKLAKELGLDVEEVKKIFEENKNKSLSAVAAALIKYFKEKGKEDAAAKIEKKYEELKEEINKKTSEKIKELE
# B16: traf2_out_18_54_1952 (protein)
# chain: EELERLKKEAREVIEKWRDEVLALVADDPAAQAMVEEMVKRVLEALETEGLWAAVTVFRRLSTELVAAITDPAKADAVGDIAADARNRLAKLALEYEKAK
# B17: traf2_out_16_104_1417 (protein)
# chain: AAAADAAFAAIIAGLEAIAEEANRLANEAYKLMLEASPEKRKELSDLLVRASELRRRALEAAEAARAGRAAGADLAEAEATLAELEAELKELKKELEKLK
# B18: traf2_out_6_3_2514 (protein)
# chain: SDEEERERNERALEEASEMSLETLKRAADTALAELEKLVKDPNATETDVLAANSFLNTLLEILRRHAEKHPEEREEAEAYAAEKEKRAAELMAEWKAKRA
# B19: traf2_out_18_157_1816 (protein)
# chain: MSDEELLRAARLAQEVEDRAEELVAATAGKSLEEIRAATLAWVEEAHELLAELPAGTRRHILTSAARRLVERLAREQGLSPEEAAALLAEALARIEELLA
# B20: traf2_out_16_177_1448 (protein)
# chain: ELDKVMDRLVILSELKRAALLIVEGKEEEAEKHLKRARELAEEAGDEEGLKLLEEIEKLAKENTPEAKKRLKELARELQKRAGELADEAERLIKERAEKE
# B21: traf2_out_11_155_738 (protein)
# chain: EEKLKLNQEMNDKINDIFDEARKEADAILEETAKKHPEHKEELEKLKEETKGFSYRSYIRSAIEKLKELGLEEEAKKLEELLEETQKKANEVVKETEEKL
# B22: traf2_out_11_155_672 (protein)
# chain: SKKQELNNELVDEITEISDKLKEEVKKILEEAAKEHPEHKEELEKVIESSKTLSGRSFARRAAQLFKELGLEEYAKKVEKLLEEAQKKMNEVVKKYEKLL
# B23: traf2_out_11_155_668 (protein)
# chain: EEKQKLNNELVSKVTEVSDELKEEVRAILEEAAAAHPEHAAELAAVIESGKTLSGRSFAQLAAQKFEELGLEEEAKRVRELLEEAQKKMNEIVKKYEKKL
# B24: traf2_out_6_156_2398 (protein)
# chain: MVEEILKETKEELKKLIKELSKASEEKKIKYINEIAGTVYRGLQKLREAGASVEEIKEFGEKIIKFIEEELKKEGIDESTKNLILSSVNAVVDVAIEAAK
# B25: traf2_out_11_169_851 (protein)
# chain: EEEEKNRKIIDKALELEDKAKAELKAHALALAKAAGLDTAAVEAIFAANEGKSLSAIAAALIAWFRAQGKEDAAAAVEAKYEELKDKINKEMTAFLKELE
# B26: traf2_out_13_95_1062 (protein)
# chain: SRELAKKINELADEAEAKVLALLDAAKAALADDPEAVAALDEARAAAKTKGISAAIHVLREAKAANPAHAAEWDALIAQLEAIRTELGRKVAELIKEEKE
# B27: traf2_out_18_117_1777 (protein)
# chain: ARREALIARAEELAERLDEAASRLGKVFLENYEKLSPEEKSEIMDVLADLTAVRRRALELIQLIERGEVPVEEAEARLRELEVEAEAAIARAEKRIKEIK
# B28: traf2_out_12_187_970 (protein)
# chain: SVEEELIRAAEEAIRQALKALEEAAPEREEFKEFLKRLKEVEELLKKHPSVAADAAVAASLILRAVRLFEDGLPQEEIDAAAEAARKELEELLAKLKALQ
# B29: traf2_out_13_95_1159 (protein)
# chain: SAELAKKIMEIADEMLDKAKEVLEELLKKAKAAGKLVEEVEEALHLAEHQSINEAIHKLEELAKKHPEFKEELEEAIEKLKELRREAGRRVAKLIKEEQE
# Molecular target: T1, TRAF2, Q12933
# Test: median log2 fold change of GCK-ALFA target abundance (FLAG IP / Myc IP barcode read proportion) (log2 ratio); each designed protein is fused to an ALFA-tag nanobody in HEK293 cells to bring the named protein to FLAG-tagged glucokinase (GCK); Myc marks an untargeted standard; higher = target protein stabilised (more abundant)
# Conditions: target protein: 3xFLAG-MCP-GCK-ALFA reporter; HEK293 landing pad (RPLP)
# Outline: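 An ALFA-nanobody-fused binder library was recombined into HEK293 landing-pad cells and induced with 2 μg mL^−1 doxycycline. Cells were transfected with a plasmid expressing a FLAG-tagged target and a Myc-tagged standard. After 48 h, lysates underwent anti-FLAG and anti-Myc immunoprecipitation, and circular RNA barcodes were reverse transcribed, amplified and sequenced. Target abundance is the per-binder median log2 ratio of FLAG to Myc barcode read proportions. Barcodes needed ≥10^−7 proportion in both replicates, binders ≥3 barcodes per replicate, and a 10^−6 pseudocount was added; the two replicates were pooled.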
row,Binder,median log2 fold change
1,B1,0.436
2,B2,0.174
3,B3,0.176
4,B4,0.215
5,B5,0.201
6,B6,0.335
7,B7,0.249
8,B8,0.268
9,B9,0.295
10,B10,0.354
11,B11,0.292
12,B12,0.269
13,B13,0.359
14,B14,0.255
15,B15,0.289
16,B16,0.266
17,B17,0.316
18,B18,0.207
19,B19,0.216
20,B20,-0.176
21,B21,0.463
22,B22,0.207
23,B23,0.313
24,B24,0.175
25,B25,0.265
26,B26,0.0801
27,B27,0.26
28,B28,0.26
29,B29,-0.768
